Source: PubChem BioAssay (Tox21)
Values joined by “and” are separate entries in the source; they are usually repeats but may differ in a detail not shown here. Equal entries are not always repeated. The shares of active, inactive and inconclusive entries below differ from those in the screen. For some of these results: Potencies beside an inconclusive call are fits to weak or partial responses and may not hold up. Active and inactive are the calls of the source. Unless noted, calls follow the shape of the dose curve; as a rule, active = well fitted curve in the direction sought with a large enough effect in the repeat runs; inconclusive = weak or mixed curves; inactive = no such curve, though single readings can be large; an effect the other way counts as inactive or inconclusive.

Legend:
[1] = target: Peroxisome proliferator-activated receptor gamma (Homo sapiens) (UniProt P37231); experiment: qHTS assay to identify small molecule antagonists of the peroxisome proliferator-activated receptor gamma (PPARg) signaling pathway (AID 743191; calls by dose curve; also: nearly all actives have a fitted effect of over 30% in size; also: potency is read from the fitted curve at half-maximal effect; as to ratio activity, negative = inhibition: % is scaled to controls: 0 for no effect and ±100 for the full control effect); conditions: HEK293H PPARg-UAS-bla, beta-lactamase ratio, antagonist, 17 h; ratio activity, negative = inhibition: at 62.6 µM (top of the series) unless noted
Sequence of UniProt P37231 (P37231 whole entry, looked up): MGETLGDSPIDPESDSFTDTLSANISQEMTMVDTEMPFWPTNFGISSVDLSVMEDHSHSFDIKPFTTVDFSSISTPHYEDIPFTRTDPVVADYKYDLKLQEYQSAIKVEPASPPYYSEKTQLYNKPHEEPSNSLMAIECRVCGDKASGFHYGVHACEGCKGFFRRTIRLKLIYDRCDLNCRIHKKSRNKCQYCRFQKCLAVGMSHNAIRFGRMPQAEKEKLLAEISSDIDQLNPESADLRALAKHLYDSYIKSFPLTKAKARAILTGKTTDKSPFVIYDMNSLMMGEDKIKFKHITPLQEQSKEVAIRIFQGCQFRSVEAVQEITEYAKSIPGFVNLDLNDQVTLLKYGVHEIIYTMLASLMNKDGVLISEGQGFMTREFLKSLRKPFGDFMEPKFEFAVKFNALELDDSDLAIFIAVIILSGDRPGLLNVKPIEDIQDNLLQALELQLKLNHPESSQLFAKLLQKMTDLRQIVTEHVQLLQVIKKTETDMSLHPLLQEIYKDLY
Summary of the method: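 GeneBLAzer PPARg UAS-bla HEK293H cells carrying a UAS-driven beta-lactamase reporter were plated at 3000 cells/well, preincubated 5 h at 37C, then given compound for 17 h at 37C; LiveBLAzer B/G FRET substrate was read after 1 h at room temperature.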

[2] = qHTS assay for small molecule agonists of the antioxidant response element (ARE) signaling pathway (AID 743202; active = well fitted activation curve with a large enough effect in the signal ratio in the repeat runs, not every such curve was filed as active; inconclusive = weak or mixed curves, or effect the other way; inactive = no such curve, though single readings can be large or run the other way; the % refers to the signal ratio; also: potency is read from the fitted curve at half-maximal effect; as to activation: % is scaled to controls: 0 for no effect and ±100 for the full control effect); conditions: HepG2 ARE-bla reporter, beta-lactamase FRET, 16 h
Summary of the method: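 Compounds delivered in DMSO to ARE-bla HepG2 cells (2,000 cells/well, pre-incubated 5 h) and left 16 h at 37 C. LiveBLAzer B/G FRET substrate then added for 2 h at RT before fluorescence reading.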

[3] = qHTS assay for small molecule agonists of the antioxidant response element (ARE) signaling pathway - cell viability counter screen (AID 743203; calls by dose curve; also: potency is read from the fitted curve at half-maximal effect; nearly all actives have a fitted effect of over 55% in size)
Summary of the method: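 ARE-bla HepG2 cells were plated, rested 5 h at 37C/5% CO2, then exposed to compounds in DMSO for 16 h. Viability was read as CellTiter-Glo luminescence after 30 min at room temperature, in the same wells as the ARE screen.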

[4] = qHTS assay for small molecule activators of the heat shock response signaling pathway - cell viability counter screen (AID 743209); conditions: HSE-bla HeLa viability, CellTiter-Glo luminescence, 5 h; activity change, negative = cytotoxicity: at 62.6 µM (top of the series) unless noted; also: potency is read from the fitted curve at half-maximal effect; nearly all actives have a fitted effect of over 50% in size
Summary of the method: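 HSE-bla HeLa cells plated overnight, then exposed to Tox21 compounds (23 nL in DMSO) for 5 h at 37 C. After the bla reporter read, CellTiter-Glo was added in the same wells and luminescence read after 30 min at room temperature.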

[5] = qHTS assay for small molecule activators of the heat shock response signaling pathway (AID 743210; active = well fitted activation curve with a large enough effect in the signal ratio in the repeat runs, with a control signal flat, not every such curve was filed as active; inconclusive = weak or mixed curves; the % refers to the signal ratio; also: potency is read from the fitted curve at half-maximal effect); conditions: HeLa HSE-bla reporter, beta-lactamase ratio, 5 h; activation: at 62.6 µM (top of the series)
Summary of the method: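 Reporter gene assay: HeLa cells stably bearing an HSE-bla construct, compound treatment 5 h at 37 C, LiveBLAzer substrate 2.5 h at RT, fluorescence intensity.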

[6] = target: Peroxisome proliferator-activated receptor delta (Homo sapiens) (UniProt Q03181); experiment: qHTS assay to identify small molecule agonists of the peroxisome proliferator-activated receptor delta (PPARd) signaling pathway (AID 743212; calls by dose curve; also: potency is read from the fitted curve at half-maximal effect); conditions: HEK293H PPARd-UAS-bla, beta-lactamase FRET ratio, 17 h; activation: at 62.6 µM (top of the series) unless noted
Sequence of UniProt Q03181 (Q03181 whole entry, looked up): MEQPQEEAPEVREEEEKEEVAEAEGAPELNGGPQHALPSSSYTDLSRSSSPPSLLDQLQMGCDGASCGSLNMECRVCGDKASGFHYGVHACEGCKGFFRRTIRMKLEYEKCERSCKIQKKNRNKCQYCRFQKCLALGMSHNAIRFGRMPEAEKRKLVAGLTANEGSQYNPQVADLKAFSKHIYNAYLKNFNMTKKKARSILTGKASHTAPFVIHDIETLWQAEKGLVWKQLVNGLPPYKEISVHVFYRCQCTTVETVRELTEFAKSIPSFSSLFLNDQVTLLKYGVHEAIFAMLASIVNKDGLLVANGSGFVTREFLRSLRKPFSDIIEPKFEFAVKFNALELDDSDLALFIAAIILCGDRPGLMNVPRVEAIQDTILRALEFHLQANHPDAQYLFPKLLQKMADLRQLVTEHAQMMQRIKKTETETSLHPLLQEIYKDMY
Summary of the method: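 A PPARd-bla HEK293H line with beta-lactamase under an Upstream Activator Sequence is treated with compounds at 37 C. Substrate loading for 2 h at room temperature precedes the fluorescence measurement.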

[7] = qHTS assay to identify small molecule antagonists of the peroxisome proliferator-activated receptor delta (PPARd) signaling pathway - cell viability counter screen (AID 743213); conditions: PPARd-bla HEK293H viability, CellTiter-Glo luminescence, 17 h; viability change, negative = cytotoxic: at 62 µM (top of the series) unless noted; also: potency is read from the fitted curve at half-maximal effect; nearly all actives have a fitted effect of over 50% in size
Summary of the method: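 Cytotoxicity counter screen: CellTiter-Glo luminescence read 30 min after addition, in the same wells as the reporter assay. There, PPARd UAS-bla HEK293H cells (3000/well) were treated 17 h at 37 C with compound and 300 nM L165041.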

[8] = target: Bile acid receptor (Homo sapiens) (UniProt Q96RI1); experiment: qHTS assay to identify small molecule antagonists of the farnesoid-X-receptor (FXR) signaling pathway (AID 743217; active = well fitted inhibition curve with a large enough effect in the signal ratio in the repeat runs, not every such curve was filed as active; inconclusive = weak or mixed curves, or effect the other way; inactive = no such curve, though single readings can be large or run the other way; the % refers to the signal ratio; also: potency is read from the fitted curve at half-maximal effect); conditions: HEK293T FXR-UAS-bla, beta-lactamase ratio, CDCA-stimulated, 16 h; activity change, negative = inhibition: at 62.6 µM (top of the series) unless noted
Sequence of UniProt Q96RI1 (Q96RI1 whole entry, looked up): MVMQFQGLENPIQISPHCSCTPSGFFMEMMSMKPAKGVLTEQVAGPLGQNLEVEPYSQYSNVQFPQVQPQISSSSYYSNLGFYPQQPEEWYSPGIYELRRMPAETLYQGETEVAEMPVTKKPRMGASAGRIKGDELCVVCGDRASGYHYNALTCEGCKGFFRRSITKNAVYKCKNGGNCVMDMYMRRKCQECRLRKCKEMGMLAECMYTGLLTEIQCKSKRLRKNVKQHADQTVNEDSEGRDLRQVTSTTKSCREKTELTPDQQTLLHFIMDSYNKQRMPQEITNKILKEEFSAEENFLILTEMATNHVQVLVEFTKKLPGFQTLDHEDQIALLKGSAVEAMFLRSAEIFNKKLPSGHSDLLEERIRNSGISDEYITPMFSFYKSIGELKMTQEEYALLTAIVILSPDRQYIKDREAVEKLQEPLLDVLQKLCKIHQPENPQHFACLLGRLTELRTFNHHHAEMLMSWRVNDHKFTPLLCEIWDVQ
Summary of the method: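 FXR-UAS-bla HEK 293T cells (beta-lactamase reporter) given compound plus chenodeoxycholic acid (50 uM final), 16 h at 37C. LiveBLAzer B/G FRET substrate added for 2 h at room temperature; fluorescence read.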

[9] = target: Bile acid receptor (Homo sapiens) (UniProt Q96RI1); experiment: qHTS assay to identify small molecule agonists of the farnesoid-X-receptor (FXR) signaling pathway (AID 743220; active = well fitted activation curve with a large enough effect in the signal ratio in the repeat runs, not every such curve was filed as active; inconclusive = weak or mixed curves, or effect the other way; the % refers to the signal ratio; also: potency is read from the fitted curve at half-maximal effect); conditions: HEK293T FXR-UAS-bla, beta-lactamase FRET ratio, 16 h; activation: at 62.6 µM (top of the series) unless noted
Summary of the method: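 Beta-lactamase reporter under UAS control in GeneBLAzer FXR HEK 293T cells (5000/well) measured with LiveBLAzer FRET substrate after 2 h at room temperature. Compound exposure lasted 16 h at 37C.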

[10] = qHTS assay to identify small molecule antagonists of the farnesoid-X-receptor (FXR) signaling pathway - cell viability counter screen (AID 743221; active = well fitted cell-killing curve with a large enough effect in the repeat runs, not every such curve was filed as active; inconclusive = weak or mixed curves, or effect the other way; inactive = no such curve, though single readings can be large or run the other way; also: potency is read from the fitted curve at half-maximal effect; nearly all actives have a fitted effect of over 50% in size); conditions: FXR-bla HEK293T viability, CellTiter-Glo luminescence, 16 h; activity change, negative = cytotoxicity: at 62.6 µM (top of the series) unless noted
Summary of the method: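 Cytotoxicity counter screen run in the FXR-bla reporter wells: HEK 293T cells exposed to compound with 50 uM (final) chenodeoxycholic acid for 16 h, 37 C, then viability measured by CellTiter-Glo luminescence after 30 min, room temperature.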

[11] = target: Vitamin D3 receptor (Homo sapiens) (UniProt P11473); experiment: qHTS assay to identify small molecule agonists of the vitamin D receptor (VDR) signaling pathway (AID 743222; calls by dose curve; also: potency is read from the fitted curve at half-maximal effect); conditions: HEK293T VDR-UAS-bla, beta-lactamase FRET ratio, 16 h; activation: at 63.5 µM (top of the series) unless noted
Sequence of UniProt P11473 (P11473 whole entry, looked up): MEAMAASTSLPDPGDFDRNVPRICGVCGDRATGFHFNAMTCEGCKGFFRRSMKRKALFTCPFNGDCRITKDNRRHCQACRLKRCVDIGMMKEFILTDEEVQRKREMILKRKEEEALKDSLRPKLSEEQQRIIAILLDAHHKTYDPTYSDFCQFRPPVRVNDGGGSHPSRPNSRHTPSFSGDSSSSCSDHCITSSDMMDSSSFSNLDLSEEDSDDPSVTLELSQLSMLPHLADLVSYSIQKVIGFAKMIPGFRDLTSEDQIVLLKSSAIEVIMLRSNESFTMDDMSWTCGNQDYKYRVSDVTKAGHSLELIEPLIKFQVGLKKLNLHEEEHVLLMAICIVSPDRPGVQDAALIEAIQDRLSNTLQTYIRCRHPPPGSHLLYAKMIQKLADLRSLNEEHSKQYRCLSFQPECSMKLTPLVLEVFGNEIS
Summary of the method: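 VDR-bla cells plated 4 h at 37 C, then exposed to compounds for 16 h at 37 C. Beta-lactamase reporter activity measured by fluorescence after 2 h room-temperature loading with LiveBLAzer B/G FRET substrate.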

[12] = target: Vitamin D3 receptor (Homo sapiens) (UniProt P11473); experiment: qHTS assay to identify small molecule antagonists of the vitamin D receptor (VDR) signaling pathway (AID 743223; active = well fitted inhibition curve with a large enough effect in the signal ratio in the repeat runs, not every such curve was filed as active; inconclusive = weak or mixed curves, or effect the other way; inactive = no such curve, though single readings can be large or run the other way; the % refers to the signal ratio; also: potency is read from the fitted curve at half-maximal effect); conditions: VDR-UAS-bla HEK293T, beta-lactamase FRET ratio, 16 h; activity change, negative = inhibition: at 61 µM (top of the series) unless noted
Summary of the method: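 Antagonist mode: compound added to VDR-bla cells alongside agonist 1alpha,25-dihydroxyvitamin D3 (3 nM final), incubation 16 h at 37C. Read-out is LiveBLAzer FRET fluorescence, 2 h at room temperature.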

[13] = qHTS assay to identify small molecule agonists of the vitamin D receptor (VDR) signaling pathway - cell viability counter screen (AID 743224); also: potency is read from the fitted curve at half-maximal effect; nearly all actives have a fitted effect of over 50% in size
Summary of the method: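 VDR-bla cells, 4 h after plating, exposed to compounds for 16 h at 37C; viability then read in the same wells as CellTiter-Glo luminescence after 30 min at room temperature, following the bla FRET read.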

[14] = qHTS assay to identify small molecule antagonists of the vitamin D receptor (VDR) signaling pathway - cell viability counter screen (AID 743225); conditions: VDR-bla HEK293T viability, CellTiter-Glo luminescence, 16 h; viability change, negative = cytotoxic: at 61 µM (top of the series) unless noted
Summary of the method: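 Cytotoxicity counter screen read by CellTiter-Glo luminescence (30 min, room temperature) in the same wells as the VDR-bla antagonist readout. HEK 293T VDR-UAS-bla cells had 16 h at 37C with compound and 3 nM (final) 1-alpha,25-dihydroxyvitamin D3, then 2 h with FRET substrate.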

[15] = qHTS assay to identify small molecule agonists of the NFkB signaling pathway - cell viability counter screen (AID 1159515; calls by dose curve; also: nearly all actives have a fitted effect of over 55% in size; also: potency is read from the fitted curve at half-maximal effect)
Summary of the method: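 NFkB-bla ME-180 cells, 2,000/well, plated overnight at 37 C; compound added for 5 hr at 37 C. Viability read in the same wells as the bla reporter, by CellTiter-Glo luminescence after 30 min at room temperature.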

[16] = qHTS assay to identify small molecule agonists of the endoplasmic reticulum stress response signaling pathway (AID 1159516; active = well fitted activation curve with a large enough effect in the signal ratio in the repeat runs, not every such curve was filed as active; inconclusive = weak or mixed curves, or effect the other way; the % refers to the signal ratio; also: potency is read from the fitted curve at half-maximal effect); conditions: ESRE-bla HeLa, ER stress beta-lactamase reporter, 5 h
Summary of the method: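 CellSensor ESRE-bla HeLa cells, 1,500 per well, plated overnight, then exposed to compounds for 5 hr at 37 C. Beta-lactamase reporter read with LiveBLAzer B/G FRET substrate after 2 hr at room temperature, 405 nm excitation, 460 and 530 nm emission.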

[17] = qHTS assay to identify small molecule antagonists of the peroxisome proliferator-activated receptor gamma (PPARg) signaling pathway - cell viability counter screen (AID 743194); conditions: PPARg-bla HEK293H viability, CellTiter-Glo luminescence, 17 h; Potency: co-treated with 50 nM rosiglitazone unless noted; activity change, negative = cytotoxicity: at 62.6 µM (top of the series), co-treated with 50 nM rosiglitazone unless noted; also: % is scaled to controls: 0 for no effect and ±100 for the full control effect; nearly all actives have a fitted effect of over 55% in size
Summary of the method: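 PPARg-UAS-bla HEK293H cells were plated, rested 5 h at 37 C, then treated with compounds plus rosiglitazone (50 nM final) for 17 h at 37 C; viability was then read by CellTiter-Glo luminescence after 30 min at room temperature.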

[18] = qHTS assay to identify small molecule agonists of the peroxisome proliferator-activated receptor delta (PPARd) signaling pathway - cell viability counter screen (AID 743211); conditions: PPARd-bla HEK293H viability, CellTiter-Glo luminescence, 17 h; activity change, negative = cytotoxicity: at 62.6 µM (top of the series) unless noted; also: potency is read from the fitted curve at half-maximal effect; nearly all actives have a fitted effect of over 55% in size
Summary of the method: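 Viability was measured as CellTiter-Glo luminescence (30 min, room temperature) in the same wells as the beta-lactamase readout. GeneBLAzer PPARd UAS-bla HEK293H cells received compound after 5 h plating and were incubated 17 h at 37 C.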

[19] = qHTS assay to identify small molecule agonists of the farnesoid-X-receptor (FXR) signaling pathway - cell viability counter screen (AID 743218); conditions: FXR-bla HEK293T viability, CellTiter-Glo luminescence, 16 h; viability change, negative = cytotoxic: at 62.6 µM (top of the series) unless noted; also: nearly all actives have a fitted effect of over 45% in size; also: potency is read from the fitted curve at half-maximal effect; as to viability change, negative = cytotoxic: % is scaled to controls: 0 for no effect and ±100 for the full control effect
Summary of the method: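 FXR-UAS-bla HEK 293T cells exposed to compounds for 16 h at 37C. Cytotoxicity read in the same wells by CellTiter-Glo luminescence after 30 min at room temperature, following the beta-lactamase FRET read.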

[20] = target: Peroxisome proliferator-activated receptor delta (Homo sapiens) (UniProt Q03181); experiment: qHTS assay to identify small molecule antagonists of the peroxisome proliferator-activated receptor delta (PPARd) signaling pathway (AID 743215; active = well fitted inhibition curve with a large enough effect in the signal ratio in the repeat runs, not every such curve was filed as active; inconclusive = weak or mixed curves, or effect the other way; inactive = no such curve, though single readings can be large or run the other way; the % refers to the signal ratio;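 also: cells stimulated with agonist L165041 at 300 nM final during compound exposure; % is scaled to controls: 0 for no effect and ±100 for the full control effect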); conditions: HEK293H PPARd-UAS-bla, beta-lactamase FRET ratio, antagonist, 17 h; ratio activity, negative = inhibition: at 62 µM (top of the series) unless noted
Summary of the method: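 PPARd-bla HEK293H cells (UAS-bla reporter) preincubated 5 h, then given compound plus 300 nM final L165041 agonist for 17 h at 37 C. Beta-lactamase activity read by LiveBLAzer B/G FRET substrate fluorescence after 2 h at room temperature.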

[21] = activation: at 73.3 µM (top of the series) unless noted
[22] = activation: at 61 µM (top of the series) unless noted
Tags tell the direction and shape of the fitted curve or compound fluorescence and quenching.

IC(I)=C(I)I
Potency [1]: inconclusive: 7.76 µM [full curve]
Potency [2, 21]: inconclusive: 5.45 µM [falling, full curve]
Potency [3]: active: 6.11 µM
Potency [4]: inconclusive: 6.92 µM [cytotoxic, full curve]
Potency [5]: inconclusive: 54.9 µM [falling, single point]
Potency [6]: inconclusive: 8.71 µM [rising, full curve]
Potency [7]: active: 12.3 µM
Potency [8]: inconclusive: 61.6 µM [rising, single point]
Potency [9]: inconclusive: 11 µM [rising, partial curve, poor fit]
Potency [10]: inconclusive: 61.6 µM [falling, single point]
Potency [11]: inconclusive: 12.3 µM [rising, partial curve]
Potency [12]: inconclusive: 13.8 µM [full curve]
Potency [13]: active: 11 µM
Potency [14]: active: 17.4 µM
Potency [15]: active: 54.9 µM
Potency [16, 22]: inconclusive: 7.76 µM

c1ccc(N=NNc2ccccc2)cc1
Potency [1]: inconclusive: 803 nM [inhibitor, partial curve, poor fit] and inconclusive: 616 nM [inhibitor, partial curve]
activity change, negative = cytotoxicity [17]: inconclusive: -34.5% [cytotoxic] [at 81.1 µM, co-treated with 50 nM rosiglitazone]
Potency [3]: inconclusive: 63.3 µM [cytotoxic, partial curve]
Potency [4]: inconclusive: 56.8 µM [cytotoxic, single point]
Potency [5]: inconclusive: 40.2 µM
Potency [18]: active: 56.8 µM and inconclusive: 11 µM [cytotoxic, full curve]
Potency [7]: inconclusive: 9.01 µM [cytotoxic, full curve, poor fit] and inconclusive: 2.19 µM [cytotoxic, partial curve, poor fit]
Potency [19]: inactive and inconclusive: 2.45 µM [cytotoxic, partial curve, poor fit]
Potency [13]: inconclusive: 11.3 µM [cytotoxic, partial curve, poor fit] and inconclusive: 3.89 µM [cytotoxic, full curve]
Potency [14]: inconclusive: 18 µM [cytotoxic, partial curve, poor fit] and inconclusive: 4.9 µM [cytotoxic, full curve, poor fit]
Potency [15]: inconclusive: 56.8 µM [cytotoxic, single point]
Potency [16, 22]: inconclusive: 56.8 µM [cytotoxic, single point] and inconclusive: 61.6 µM

CNC(=O)Oc1cccc2c1OC(C)(C)C2
Potency [1]: inactive
activation [2, 21]: inconclusive: 5.4%
activation ([2]; at 94.8 µM (top of the series)): inactive: -1.75%
ratio activity, negative = inhibition [20]: inconclusive: -6.69%
Potency [11]: inactive and inconclusive: 61.6 µM [fluorescent, partial curve, poor fit]
activity change, negative = inhibition [12]: inconclusive: 25.4% [at 78.8 µM]
Potency [15]: inactive
activation [16, 22]: inconclusive: 6.12% [at 78.8 µM]
activation ([16]; at 61 µM (top of the series)): inactive: -0.0768%
